In PubChem BioAssay AID1671194 (National Center for Advancing Translational Sciences (NCATS), 2021):
Among all 140,000 compounds or so, about 240 (0.17%) were called active. Inconclusive means that the source gave no clear call. Such entries were picked first, then a sample of the others. The call rests on the fitted dose curve; in most records, active means well fitted inhibition curve with a large enough effect; inconclusive means small, poorly fitted or top-dose-only effect; inactive means no such curve, though single readings can be large or run the other way. Potencies of inconclusive entries are doubtful fits and often do not repeat.

Test: Primary qHTS assay for inhibitors of alpha-synuclein gene (SNCA) expression; further: nearly all actives have a fitted effect of over 45% in size
Details: HEK-293 SNCA-luciferase knock-in, luminescence, 24 h; series mostly up to 57.2 µM
Potency means the concentration at half of the fitted maximal effect; tags describe the fitted curve by direction and shape.

Potency, inconclusive:
Cn1cc(C(=O)N2CCN(c3cccc(C(F)(F)F)c3)CC2)c2c3ccccc3n(C)c2c1=O 22.4 µM [inhibitor, partial curve]
COc1ccc(-c2noc([C@@H]3Cc4nc[nH]c4CN3Cc3cccs3)n2)cc1 7.08 µM [inhibitor, full curve, poor fit]
Cc1ccc(C(=O)N(CCCN)[C@@H](c2oc3cc(Cl)ccc3c(=O)c2Cc2ccccc2)C(C)C)cc1 0.0014 µM [inhibitor, full curve, poor fit]
CC(C)OC(=O)CCCC=CC[C@@H]1[C@H](C=C[C@@H](O)COc2cccc(C(F)(F)F)c2)[C@H](O)C[C@@H]1O 42.9 µM [inhibitor, single point]
COc1cccc(CNC(=O)CSc2c3c(nc4cc(Cl)ccc24)CCCC3)c1 28.2 µM [inhibitor, single point]
Cc1cc(Cl)ccc1OCC(=O)N1CCC2(CC1)CC(O)CCO2 (stereo unspecified) 3.16 µM [inhibitor, single point]
Nc1nc(N)c2nc(-c3ccccc3)c(N)nc2n1 20 µM [inhibitor, single point]
O=C(NC1CCCCC1)C1CN(C(=O)c2ccc(F)cc2)CC12CCOCC2 (stereo unspecified) 39.8 µM [inhibitor, single point]
CC1=C[C@@H](CN2CCN(c3ncccn3)CC2)[C@H](C(C)C)C[C@H]1Cc1nnc(-c2cncn2C)o1 22.4 µM [inhibitor, single point]
CCN(C(=O)c1cc2c(=O)oc3ccc(C)cc3c2s1)c1cc(OC)ccc1OC 39.8 µM [inhibitor, single point]
O=C1NC(=NC2CCCC2)C2(CCCN(Cc3ccc(F)cc3)C2)N1c1cccnc1 (stereo unspecified) 39.8 µM [inhibitor, single point]
O=C(NCc1ccnc2[nH]ccc12)C1CCCC1 11.2 µM [inhibitor, single point]
COCCN(C)C[C@@H]1CN(C(=O)c2ccc(Cl)cc2)C[C@@H]1CO 3.98 µM [inhibitor, single point]
CC1CCN(Cc2nnnn2CCCC(=O)N2CCN3CCCC3C2)CC1 (stereo unspecified) 39.8 µM [inhibitor, single point]
COc1ccc(-c2cnc3n[nH]c(-c4sccc4C)c3n2)cc1OC 25.1 µM [inhibitor, single point]
CC(=O)Nc1ccc(NC(=O)Cn2ccn3nc4c(c3c2=O)CCCCC4)cc1 11.2 µM [inhibitor, partial curve]
CCCN1CC2(CCN(C)CC2)CC1C(=O)N(C)Cc1ccn[nH]1 (stereo unspecified) 2.51 µM [inhibitor, full curve, poor fit]
CCOC(=O)c1[nH]c(C)c(CCC(=O)NCc2ccc(OCC)cc2)c1C 0.178 µM [inhibitor, partial curve, poor fit]
CCOc1ccc(CC(=O)N2CCC(Cc3nc(-c4ccc(OC)cc4)no3)CC2)cc1OCC 35.5 µM [inhibitor, single point]
CCCC(=O)N1CCC(N2C(=O)C3(CCCCC3)C2c2ccccc2)CC1 (stereo unspecified) 35.5 µM [inhibitor, single point]
COc1ccc(CCCN2C(=O)O[C@@H]3CN(S(=O)(=O)N(C)C)C[C@@H]32)cc1 39.8 µM [inhibitor, single point]
CCn1c2c(c(=O)n1Cc1ccccc1)CCN(C(=O)c1cn[nH]c1)C2 56.2 µM [inhibitor, single point]
O=C1Cc2c(-c3ccc4c(c3)OCO4)n[nH]c2CN1CC1CCOCC1 12.6 µM [inhibitor, partial curve, poor fit]
O=C1COc2ccc(-c3cncnc3)nc2CN1Cc1ccc(F)cc1 31.6 µM [inhibitor, single point]
COc1ccc(CNC(=O)c2ccc3c(c2)nc2n3CCC(C)C2)c(OC)c1 (stereo unspecified) 7.08 µM [inhibitor, single point]
CNC(=O)c1nc2cccnc2n(CCc2ccccc2)c1=O 12.6 µM [inhibitor, single point]
COCCN(Cc1nccs1)C(=O)c1cnc(-c2ccccn2)[nH]c1=O 8.91 µM [inhibitor, full curve, poor fit]
O=C(CNC(=O)c1ccc(-c2cccc(C(F)(F)F)c2)cc1)NCc1ccccc1 10 µM [inhibitor, full curve]
O=C(c1ccc(-c2ncc3cnc(-c4ccccc4)cn23)cc1)N1CCc2cccnc21 56.2 µM [inhibitor, single point]
Cc1ccc(C2Cn3nnc(-c4nc(-c5ccccc5Cl)no4)c3CO2)c(C)c1 (stereo unspecified) 8.91 µM [inhibitor, single point]
Cc1ccc(C(=O)N2CCc3[nH]nc(C(=O)NCCCc4ccccc4)c3C2)cc1F 15.8 µM [inhibitor, partial curve, poor fit]
O=C(c1ccc(OC2CCN(C(=O)c3ccsc3)CC2)nc1)N1CCOCC1 39.8 µM [inhibitor, single point]
CCSc1ncc(Cl)c(C(=O)Nc2ccc(S(=O)(=O)N(C)c3ccccc3)cc2)n1 5.01 µM [inhibitor, partial curve, poor fit]
Cc1cc(Nc2cccc(Cl)c2)nc2ccc(NC(=O)c3cccnc3)cc12 39.8 µM [inhibitor, single point]
COc1ccccc1CNC(=O)c1ccc(-c2nc(CN3CCc4ccccc43)c(C)o2)cc1 10 µM [inhibitor, partial curve, poor fit]
CCC(=O)N1CCc2cc(Br)cc(S(=O)(=O)N3CCCC(C(=O)N(C)c4ccc(Br)cc4)C3)c21 (stereo unspecified) 3.55 µM [inhibitor, partial curve, poor fit]
Cc1nnc(-c2cc(-c3cccc(F)c3)ccn2)n1C1CCCCC1 56.2 µM [inhibitor, single point]
Clc1ccc(N2CCN(c3ncnc4c3nc3n4CCCC3)CC2)cc1 39.8 µM [inhibitor, single point]
O=C(c1cc(Cl)ccc1F)N1CCN(c2cc(C(F)(F)F)ncn2)CC1 39.8 µM [inhibitor, single point]
OC[C@@H]1O[C@H](CNCc2cccc(Cl)c2)[C@H](N2CCCC2)[C@@H]1O 10 µM [inhibitor, single point]
Cc1ccc(Cl)cc1N1CCN(c2ncnc3onc(C)c23)CC1 1.58 µM [inhibitor, partial curve, poor fit]
CC(=O)N1CCn2ncc(C(=O)Nc3ccc(Cl)cc3Cl)c2C1 3.16 µM [inhibitor, partial curve, poor fit]
O=C(NCc1ccc2c(c1)OCO2)c1nc(-c2cccc(C(F)(F)F)c2)c2ccccn12 3.16 µM [inhibitor, full curve, poor fit]
Cn1c(=O)oc2cc(S(=O)(=O)CCC(=O)N3CCN(c4ccccc4)CC3)ccc21 2.51 µM [inhibitor, single point]

Potency, inactive:
COc1cccc(NC(=O)C2CCCN(S(=O)(=O)c3ccc4[nH]c(=O)ccc4c3)C2)c1 (stereo unspecified)
COc1ccc(-c2cc(C(=O)NCc3ccccn3)c3cnn(C)c3n2)cc1
O=C(Nc1ccc2nc(SCc3ccccc3)sc2c1)c1ccccc1F
C[S+](=O)([O-])N1CCC(Cn2ccc3c(N4CCOCC4)nc(-c4cccc5[nH]ncc45)cc32)CC1
CN1CCC(N2CC[C@H](c3nc4ccc(C(F)(F)F)cc4[nH]3)C2)CC1
O=C1CC(c2ccccc2)Sc2nc(-c3ccc(F)cc3)nn21 (stereo unspecified)
COCC(=O)Nc1ccc(-c2noc([C@@H]3CCCN3CC(C)(C)C)n2)cn1
COc1ccc(C(=O)Nc2cc(C(C)C)c(O)c(S(=O)(=O)c3ccc(Cl)cc3)c2C)cc1
COC(=O)N1CCc2nc(C3CC3)nc(-c3ccc(O)cc3)c2CC1
O=C(c1ccc(Cl)cc1)N1CCC2(CC1)C(=O)NCN2CCc1ccc(Cl)cc1
CCc1ccc(CN2CCCCC23Cc2ccccc2CNC3=O)cc1 (stereo unspecified)
CN(C)CCCC(=O)N1CCC2(CC1)CN(C(=O)Cc1ccc(O)cc1)CCO2
CC1(c2ccccc2)N(Cc2ccccc2F)C(=O)OC12CCN(C(=O)c1cccc(C#N)c1)CC2 (stereo unspecified)
O=C(c1cccnc1)N1CC(Oc2ccc(-c3noc(-c4ccccc4)n3)cc2)C1
CC(C)NC(=O)C[C@@H]1CCNC[C@@H]1Cc1cc(CC2CCCCC2)on1
c1cncc(-c2ccnc(NCCc3noc(C4CCCC4)n3)n2)c1
Cc1ccccc1-c1nccc2c(=O)cc(N(C)C3CCOCC3)oc12
O=C(C1CCC1)N1CCC(OCc2ccccc2)C1 (stereo unspecified)
COc1ccc(OC)c(NC(=O)C2CCN(c3cnc4nccnc4c3)CC2)c1
COc1cc(-c2ccnc3nc(C4CCCCC4)nn23)cc(OC)c1OC
O=C1COc2ccc(NCc3cccs3)nc2CN1Cc1ccc(F)cc1
CC(C)Cc1ccc(CN2CCC3(Cc4ccccc4CNC3=O)C2)cc1 (stereo unspecified)
